The results in this text go back to the supplement of paper PMC11417369.

± gives the standard deviation of the averaged measurements. The list shows a part of the results.

This experiment deals with PfAP2-I AP2 domain 3 (GST-tagged). In words: gcPBM binding intensity (ln(normalized median fluorescence intensity)); higher = stronger DNA binding. In a few lines: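 Using an Agilent 4 × 180k array, primer-extended double-stranded 36-bp intergenic genomic probes and negative controls were exposed for 1 h to GST-fused P. falciparum DNA-binding domains expressed in E. coli. Binding was carried out in 1× PBS with 1% milk, 0.2 mg/ml BSA, 0.5% salmon testes DNA and 0.03% Triton X-100, and protein was detected with Alexa488 anti-GST antibody and a 488 nm scan. Binding intensity is the highest Masliner-normalised natural-log median intensity across replicate spots of either probe orientation.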
Turning to “AAATAAGAAAATCATAGTACATAGGAATAGAAGAAC [XGTACX_site3135]”, the “gcPBM binding intensity (ln)” value came out at 8.75 ± 0.61.
To “AGAAAAATTATATATACACACTTATATTTATATATA [CACACA_site5555]” belongs 7.58 ± 0.52; to “TACGTTCTGATATATACACACCTGGTATTAATTATG [CACACA_site7113]”, 7.96 ± 0.7.
The same measure for “TTAAAAAAAGAAAAAAAAAAAAAAAAAAAAAAACAT [CACACA_negctrl_site475]”: 7.71 ± 0.52.
For “TATAAAAATATTTCTACACACATTAATATTTATATA [CACACA_site6661]”, the “gcPBM binding intensity (ln)” value is 7.77 ± 0.48.
Consider “TATTATATTCTGCTTACACACATATATATATATATA [CACACA_site3060]”, for which the “gcPBM binding intensity (ln)” value is 9.5 ± 0.37.
With “GTTCTAAATATTATTGCATGTTGCACGTTTCTCTGT [TGCATGCA_site159]”, the “gcPBM binding intensity (ln)” value was found to be 9.52 ± 0.23.
To “GTGATAATTGCTTGGTGTACCCACATATATATATAT [XGTACX_site1636]” belongs 9.32 ± 0.23; to “AAAGAGAAATTTAAATGTACATTTGTTCTAAGTGTA [XGTACX_site3602]”, 7.62 ± 0.56; to “AATTATGAAAAATCAAGTACAAACAAAATCATAATT [XGTACX_site5665]”, 7.99 ± 0.76.
“AAAAGATATATTATATGTACTAATTATATGATAAAT [XGTACX_site4192]”: the “gcPBM binding intensity (ln)” value worked out at 7.79 ± 0.43.
For the sequence “CATACACCCATACATACACACATACATATATATATA [CACACA_site8591]”, the “gcPBM binding intensity (ln)” value amounted to 9.19 ± 0.38.
The same measure for “ATATAATGTTTCACATGTACAAACAACACAAAAAAA [XGTACX_site1899]”: 8 ± 0.52.
To “CTTTAGTTTTTAATGTGTACTGAATTTGAATAGTAG [XGTACX_site7920]” belongs 8 ± 0.13.
As for “CGTATTATTTTATAAACACACAAGGGGGCATGTATA [CACACA_site6489]”, the “gcPBM binding intensity (ln)” value came out at 9.34 ± 0.099.
With “TTGATATGTACAGGCACACATAAATTTCACAAATAT [CACACA_site3999]”, the “gcPBM binding intensity (ln)” value was 8.09 ± 0.29.
With “CATAAATGTATATAAACATGCAAGGACAGACTTTTA [TGCATGCA_site900]”, the “gcPBM binding intensity (ln)” value came out at 7.71 ± 0.69.
The same measure for “ATATAATTAAAAACATGTACATATATATATATATAT [XGTACX_site2882]”: 9.27 ± 0.2.
The same measure for GTAAAAATACAAAAGGTGCTCAAACAATATAATACA: 9.675 ± 0.049; for “TACATACAGATATATACACACATATATAATATATAT [CACACA_site4376]”: 7.79 ± 0.42; for “TACATACCTATATACACATGCATATTTACATATATT [TGCATGCA_site206]”: 8.5 ± 0.88.
The same measure for “AAAATTAAATTATAAGCACACACATATATATATATA [CACACA_site9105]”: 9.54 ± 0.35; for “TATATAATATATATGACACACATATTTATATAAATA [CACACA_site4054]”: 7.61 ± 0.36; for “GAATATTAAACAAACACACACACATATATTTATATA [CACACA_site7563]”: 7.66 ± 0.4.
As for “AATGGATTGATAAGTGGTACACACATATATATTATA [XGTACX_site6086]”, the “gcPBM binding intensity (ln)” value is 7.91 ± 0.35.
